The text below walks through data of the antibiotic and cytotoxicity screens of Wong et al. (2023).

The subject of one assay is HSkMC. Nature of the assay: cytotoxicity call (relative viability < 0.9). To be noted: 10 µM.
In a further assay the test system is HepG2. Nature of the assay: cytotoxicity call (relative viability < 0.9). To be noted: 10 µM.
Another assay relates to S. aureus RN4220. Nature of the assay: growth inhibition call (relative growth <= 0.2). To be noted: 50 µM.

This is one part of the list.

With `C[C@@H]1CCCCO[C@@H](CN(C)C(=O)Cc2ccccc2)[C@@H](C)CN([C@H](C)CO)C(=O)c2cc(NS(=O)(=O)c3ccc(Cl)cc3)ccc2O1`, the cytotoxicity call in the assay on HSkMC and in the assay with HepG2 was “inactive” each time. Moreover, the growth inhibition call in the assay with S. aureus RN4220 is “inactive”.
Consider `Nc1nc(=O)[nH]cc1NC(=O)c1ccccc1`, for which the cytotoxicity call in the assay with HSkMC and with HepG2 was “inactive” throughout. For the same compound, in the assay with S. aureus RN4220, the growth inhibition call was “inactive”.
`COc1ccc(NC(=O)N(C)C[C@H]2Oc3ccc(NC(=O)Cn4cnnn4)cc3CC(=O)N([C@H](C)CO)C[C@H]2C)cc1`: the cytotoxicity call in the assay with HSkMC and in the assay on HepG2 was “inactive” each time. The growth inhibition call in the assay with S. aureus RN4220 is “inactive”.
For `C[C@@H]1CCCCO[C@@H](CN(C)Cc2ccc(C(=O)O)cc2)[C@@H](C)CN([C@H](C)CO)C(=O)c2cc(NS(=O)(=O)c3ccc(Cl)cc3)ccc2O1`, the cytotoxicity call with HSkMC and in the assay with HepG2 was “inactive” in each case. Moreover, the growth inhibition call in the assay with S. aureus RN4220 was “inactive”.
In the case of `Cc1ccc(S(=O)(=O)N(C)C[C@@H]2Oc3ccc(NC(=O)CCCN(C)C)cc3C(=O)N([C@@H](C)CO)C[C@@H]2C)cc1`, the cytotoxicity call in the assay with HSkMC and in the assay on HepG2 was “inactive” in each case. Further, in the assay on S. aureus RN4220, the growth inhibition call is “inactive”.
Consider `C[C@@H]1CN([C@@H](C)CO)C(=O)Cc2cc(NC(=O)CCN3CCOCC3)ccc2O[C@H]1CN(C)Cc1ccncc1`, for which the cytotoxicity call in the assay on HSkMC and with HepG2 was “inactive” throughout. In the assay on S. aureus RN4220, the growth inhibition call is “inactive”.
Turning to `C[C@@H]1CN([C@@H](C)CO)C(=O)c2cc(NS(=O)(=O)c3cccs3)ccc2O[C@@H]1CN(C)Cc1ccc(Oc2ccccc2)cc1`, the cytotoxicity call in the assay with HSkMC and in the assay with HepG2 was “inactive” throughout. Further, in the assay on S. aureus RN4220, the growth inhibition call was “inactive”.
On to `C=C/C=C/[C@H]1C(=C)CN([C@H](Cc2ccc(-n3cc(COc4ccccc4/C=C(C)/C=C/C(=O)NO)nn3)cc2)C(=O)OC)[C@@H]1[C@H](O)Cc1ccccc1`, for which the cytotoxicity call with HSkMC and in the assay on HepG2 was “inactive” each time. In the assay with S. aureus RN4220, the growth inhibition call was “inactive”.
`Nc1ncnc2c1ncn2[C@H]1C[C@H](O)[C@@H](CO)O1`: the cytotoxicity call in the assay on HSkMC and in the assay with HepG2 was “inactive” in each case. Also, the growth inhibition call in the assay on S. aureus RN4220 was “inactive”.
In the case of `CCC(=O)N(C)C[C@@H]1Oc2ncc(C#C[C@H](C)O)cc2C(=O)N([C@@H](C)CO)C[C@@H]1C`, the cytotoxicity call with HSkMC and with HepG2 was “inactive” in each case. Besides, in the assay on S. aureus RN4220, the growth inhibition call is “inactive”.
With `COC1CC(OC2C(C)OC(OC3C(C)=CCC4CC(CC5(C=CC(C)C(C6CCCCC6)O5)O4)OC(=O)C4C=C(C)C(O)C5OCC(=CC=CC3C)C45O)CC2OC)OC(C)C1O` (stereo not given), the cytotoxicity call in the assay on HSkMC and in the assay on HepG2 was “inactive” in each case. Further, the growth inhibition call in the assay on S. aureus RN4220 is “inactive”.
For the compound `C[C@@H]1CN([C@H](C)CO)C(=O)Cc2cc(NC(=O)Nc3cccc4ccccc34)ccc2O[C@H]1CN(C)Cc1ccc(C(=O)Nc2ccccc2N)cc1`, the cytotoxicity call in the assay on HSkMC and with HepG2 was “inactive” throughout. Further, the growth inhibition call in the assay on S. aureus RN4220 is “inactive”.
Consider `C[C@@H]1CN([C@@H](C)CO)C(=O)c2cccc(NC(=O)Nc3cccc4ccccc34)c2O[C@H]1CN(C)S(=O)(=O)c1ccc2c(c1)OCCCO2`, for which the cytotoxicity call with HSkMC and in the assay on HepG2 was “inactive” in each case. Besides, the growth inhibition call in the assay with S. aureus RN4220 is “inactive”.
Turning to `Cc1noc(C)c1NC(=O)N(C)C[C@H]1Oc2c(NC(=O)Nc3ccc(C(F)(F)F)cc3)cccc2C(=O)N([C@@H](C)CO)C[C@H]1C`, the cytotoxicity call in the assay on HSkMC was “inactive”. Also, the cytotoxicity call with HepG2 is “active”. Also, the growth inhibition call in the assay with S. aureus RN4220 is “inactive”.
As for `C[C@@H]1CN([C@H](C)CO)C(=O)c2cc(NC(=O)CCC(F)(F)F)ccc2O[C@@H](C)CCCCO[C@H]1CN(C)C(=O)C1CCCCC1`, the cytotoxicity call in the assay on HSkMC and in the assay on HepG2 was “inactive” in each case. The growth inhibition call with S. aureus RN4220 is “inactive”.
`Cn1cccc1C(=O)NCc1cn2c(n1)CN(S(C)(=O)=O)CC2`: the cytotoxicity call in the assay with HSkMC and in the assay on HepG2 was “inactive” throughout. Further, the growth inhibition call with S. aureus RN4220 was “inactive”.
For the compound `CNC(=O)N1CCN(Cc2cnn(C)c2)C[C@]2(CCCC(=O)N2)C1`, the cytotoxicity call in the assay with HSkMC and in the assay on HepG2 was “inactive” each time. The growth inhibition call in the assay on S. aureus RN4220 is “inactive”.
Regarding `CC(C)(C)C(=O)Nc1ccccc1F`, the cytotoxicity call in the assay on HSkMC and in the assay with HepG2 was “inactive” in each case. For the same compound, in the assay with S. aureus RN4220, the growth inhibition call was “inactive”.
As to `O=C(NO)c1cccc(C(=O)N/N=C/[C@@H](O)[C@@H](O)[C@H](O)[C@H](O)CO)c1`, the cytotoxicity call in the assay on HSkMC and in the assay on HepG2 was “inactive” in each case. Besides, the growth inhibition call with S. aureus RN4220 is “inactive”.
In the case of `CCOC(=O)c1ccc(NC(=S)N[C@@H](NC(=O)c2ccc(Br)cc2)C(Cl)(Cl)Cl)cc1`, the cytotoxicity call in the assay on HSkMC is “active”. Further, the cytotoxicity call in the assay with HepG2 was “inactive”. Moreover, in the assay on S. aureus RN4220, the growth inhibition call was “inactive”.
For the compound `CC1(C)OC(=O)C2(C(=O)O1)[C@@H](c1ccc(-c3ccc(Br)cc3)cc1)CC(=O)C[C@H]2c1ccccc1`, the cytotoxicity call in the assay on HSkMC and with HepG2 was “inactive” each time. For the same compound, the growth inhibition call in the assay on S. aureus RN4220 is “inactive”.
As for `C[C@@H]1CN([C@@H](C)CO)C(=O)c2cc(NC(=O)Cc3cn(C)c4ccccc34)ccc2O[C@H]1CN(C)CC1CCCCC1`, the cytotoxicity call in the assay on HSkMC and in the assay with HepG2 was “inactive” each time. The growth inhibition call in the assay on S. aureus RN4220 was “inactive”.
Consider `C[C@@H]1CCCCO[C@@H](CN(C)S(=O)(=O)c2cn(C)cn2)[C@H](C)CN([C@@H](C)CO)C(=O)c2cc(N(C)C)ccc2O1`, for which the cytotoxicity call in the assay with HSkMC and with HepG2 was “inactive” in each case. Further, in the assay on S. aureus RN4220, the growth inhibition call was “inactive”.
For the compound `C[C@H](NC(=O)N(C)C[C@H]1OCc2ccccc2-c2ccccc2C(=O)N([C@H](C)CO)C[C@H]1C)c1ccccc1`, the cytotoxicity call in the assay with HSkMC and with HepG2 was “inactive” each time. In addition, the growth inhibition call in the assay with S. aureus RN4220 is “inactive”.
Consider `CC(C)NC(=O)Nc1ccc2c(c1)C(=O)N([C@@H](C)CO)C[C@@H](C)[C@H](CN(C)S(=O)(=O)c1ccccc1)O2`, for which the cytotoxicity call in the assay on HSkMC (human skeletal muscle cells) and in the assay on HepG2 was “inactive” in each case. Moreover, in the assay on S. aureus RN4220, the growth inhibition call was “inactive”.
